# Results reported in a collection of fitness landscapes (doi:10.1016/j.celrep.2020.107928).
# In all, about 81,000 sequences were measured (“one-hybrid fitness for binding parS DNA”: median about -0.17, highest 2% from about 0.51 on). This is one part of the list.
# B1: Caulobacter ParB omega fusion; a variant is named by its letters at X, in order, B8GW30 (parent)
# chain: MESVVVGEPGMSEGRRGLGRGLSALLGEVDAAPAQAPGEQLGGSREAPIEILQRNPDQPRRTFREEDLEDLSNSIREKGVLQPILVRPSPDTAGEYQIVAGERAWRAAQRAGLKTVPIMVRELDDLAVLEIGIIENVQRADLNVLEEALSYKVLMEKFERTQENIAQTIGKSXSHVANXMRLLXLPDEVQSYLVSGELTAXHARAIAAAADPVALAKQIIEGGLSVRETEALARKAPNLSAGKSKGGRPPRVKDTDTQALESDLSSVLGLDVSIDHRGSTGTLTITYATLEQLDDLCNRLTRGI
# Variants of: B1
# Experiment: one-hybrid fitness for binding parS DNA (scaled: cognate 1, non-cognate 0); higher = stronger binding
# Conditions: with parS DNA site
# In short: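 Pre- and post-selection plasmids were Illumina-sequenced, three replicate libraries were pooled, and any variant with under 10 reads was removed. The libraries were Caulobacter ParB with four specificity codons randomised, selected in E. coli USO through a HIS3 reporter whose site is 19 bp from the promoter. Cells grew 48 hours at 37°C on M9 without histidine, with 0.1 mM IPTG and 5 mM 3-AT. Fitness is the log change in variant-to-wild-type read ratio, rescaled against cognate and non-cognate.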
row,Variant,one-hybrid fitness for binding parS DNA
1,NGAL,≤ 0.2
2,IISC,≤ 0.2
3,SFTL,≤ 0.2
4,KQWG,≤ 0.2
5,TIDK,≤ 0.2
6,SMRC,≤ 0.2
7,WPST,≤ 0.2
8,YVSQ,≤ 0.2
9,NQWP,≤ 0.2
10,FDVD,≤ 0.2
11,RSES,0.902
12,LFME,≤ 0.2
13,PMRC,≤ 0.2
14,IHPR,≤ 0.2
15,VCQS,≤ 0.2
16,ALRQ,≤ 0.2
17,WQSG,≤ 0.2
18,SWYT,≤ 0.2
19,AALP,≤ 0.2
20,GSHK,≤ 0.2
21,GSNS,≤ 0.2
22,ERVG,≤ 0.2
23,QCSF,≤ 0.2
24,FHHC,≤ 0.2
25,TKVY,≤ 0.2

row,Variant,one-hybrid fitness for binding parS DNA
1,YPFC,≤ 0.2
2,AAEP,≤ 0.2
3,PSLW,≤ 0.2
4,APPL,≤ 0.2
5,DGGS,≤ 0.2
6,PPMF,≤ 0.2
7,RIMW,≤ 0.2
8,TWAF,≤ 0.2
9,DRVV,≤ 0.2
10,TCIR,≤ 0.2
11,FDRV,≤ 0.2
12,VVFC,≤ 0.2
13,NWHD,≤ 0.2
14,EHCS,≤ 0.2
15,CEFR,≤ 0.2
16,HDTY,≤ 0.2
17,KTDA,≤ 0.2
18,NFAG,≤ 0.2
19,CLIH,≤ 0.2
20,CLRW,≤ 0.2
21,PLYT,≤ 0.2
22,PAMG,≤ 0.2
23,WLRR,≤ 0.2
24,IAFM,≤ 0.2
25,MMPT,≤ 0.2

row,Variant,one-hybrid fitness for binding parS DNA
1,PKKC,≤ 0.2
2,KMYA,≤ 0.2
3,KWAS,≤ 0.2
4,STTK,≤ 0.2
5,ERQG,≤ 0.2
6,HSTR,≤ 0.2
7,IYIV,≤ 0.2
8,STRP,≤ 0.2
9,CRVM,≤ 0.2
10,EYTA,≤ 0.2
11,FWPG,≤ 0.2
12,HRTD,≤ 0.2
13,AYDW,≤ 0.2
14,GRAS,≤ 0.2
15,VLHP,≤ 0.2
16,GGDL,≤ 0.2
17,FRKN,≤ 0.2
18,PLSY,≤ 0.2
19,VRLC,≤ 0.2
20,NAIH,≤ 0.2
21,QSME,≤ 0.2
22,MWWS,≤ 0.2
23,NRVS,≤ 0.2
24,EDLS,≤ 0.2
25,KLYC,≤ 0.2

row,Variant,one-hybrid fitness for binding parS DNA
1,ATCR,≤ 0.2
2,PIQQ,≤ 0.2
3,TLNE,≤ 0.2
4,QAPY,≤ 0.2
5,PSKG,≤ 0.2
6,YPHD,≤ 0.2
7,TPYY,≤ 0.2
8,EMAC,≤ 0.2
9,KFPC,≤ 0.2
10,MHVT,≤ 0.2
11,IGDW,≤ 0.2
12,APTG,≤ 0.2
13,LTSD,≤ 0.2
14,KSNN,≤ 0.2
15,SSWT,≤ 0.2
16,PGIS,≤ 0.2
17,HTKM,≤ 0.2
18,RGNG,0.801
19,LDWL,≤ 0.2
20,SAGE,≤ 0.2
21,IPHV,≤ 0.2
22,PVML,≤ 0.2
23,AWNS,≤ 0.2
24,ASPR,≤ 0.2
25,QIKP,≤ 0.2

row,Variant,one-hybrid fitness for binding parS DNA
1,TFKC,≤ 0.2
2,MQSY,≤ 0.2
3,ELCF,≤ 0.2
4,KGGI,≤ 0.2
5,NTRV,≤ 0.2
6,RQDH,≤ 0.2
7,CFRT,≤ 0.2
8,VVPP,≤ 0.2
9,YLYR,≤ 0.2
10,NHDW,≤ 0.2
11,ANKC,≤ 0.2
12,TLPL,≤ 0.2
13,KANL,≤ 0.2
14,RFSH,≤ 0.2
15,ETKR,≤ 0.2
16,TPCD,≤ 0.2
17,YSAG,≤ 0.2
18,DFLS,≤ 0.2
19,QKQI,≤ 0.2
20,PEAN,≤ 0.2
21,NTTI,≤ 0.2
22,RRVC,0.673
23,GPCI,≤ 0.2
24,LHVT,≤ 0.2
25,VIVS,≤ 0.2

row,Variant,one-hybrid fitness for binding parS DNA
1,YLAD,≤ 0.2
2,QSQH,≤ 0.2
3,KTMR,≤ 0.2
4,LRLG,≤ 0.2
5,QCPV,≤ 0.2
6,NSLW,≤ 0.2
7,YQAR,≤ 0.2
8,LVED,≤ 0.2
9,ADTP,≤ 0.2
10,AKPN,≤ 0.2
11,KRRD,≤ 0.2
12,QTAV,≤ 0.2
13,EVVR,≤ 0.2
14,MGVG,≤ 0.2
15,QKID,≤ 0.2
16,HAQY,≤ 0.2
17,LREM,≤ 0.2
18,YDWG,≤ 0.2
19,GGSF,≤ 0.2
20,VSHT,≤ 0.2
21,PQGY,≤ 0.2
22,LEDW,≤ 0.2
23,LSRH,≤ 0.2
24,VWKI,≤ 0.2
25,AIWC,≤ 0.2

row,Variant,one-hybrid fitness for binding parS DNA
1,YTST,≤ 0.2
2,NIAY,≤ 0.2
3,QRSI,≤ 0.2
4,NTAE,≤ 0.2
5,VTAS,≤ 0.2
6,KRAC,≤ 0.2
7,ANND,≤ 0.2
8,CMNC,≤ 0.2
9,GSVQ,≤ 0.2
10,YPQY,≤ 0.2
11,PKID,≤ 0.2
12,QPAT,≤ 0.2
13,PQKY,≤ 0.2
14,SNTA,≤ 0.2
15,TKAC,≤ 0.2
16,RYWA,0.554
17,QHDF,≤ 0.2
18,SGQL,≤ 0.2
19,MMEC,≤ 0.2
20,RIFY,0.462
21,STAQ,≤ 0.2
22,AGGR,≤ 0.2
23,HGCS,≤ 0.2
24,IYVT,≤ 0.2
25,SYGG,≤ 0.2

row,Variant,one-hybrid fitness for binding parS DNA
1,TEHC,≤ 0.2
2,QRKV,≤ 0.2
3,DAPS,≤ 0.2
4,KPIS,≤ 0.2
5,KSIV,≤ 0.2
6,KRCL,≤ 0.2
7,PVGT,≤ 0.2
8,NHQT,≤ 0.2
9,TVIG,≤ 0.2
10,RNWQ,≤ 0.2
11,KHMG,≤ 0.2
12,WDMT,0.344
13,PHKA,≤ 0.2
14,SRDI,≤ 0.2
15,VDAS,≤ 0.2
16,LVAY,≤ 0.2
17,QPHF,≤ 0.2
18,LDHC,≤ 0.2
19,LCRV,≤ 0.2
20,HGLM,≤ 0.2
